Data published in PubChem BioAssay AID1963426 (Molecular Pharmacology Branch, DTP, NCI, 2024).
For part of its entries the source gives two or more results. This list holds those alone. The source may hold further records. Values given together are repeated measurements in other runs, samples, wells, individuals or studies. Marks such as (2×) stand for listed records that agree. Marks such as [2022-09] give the month of the run.

Test system: 186277-243-T-J2-PDC complex spheroid growth, % test/control
Test: Anticancer human tumor 186277-243-T-J2-PDC patient-derived colon adenocarcinoma cell line growth inhibition [Asc]
Settings: for viability, T/C: stronger effect = lower value
Method: Multicellular complex tumor spheroid response to apoptosis pathway targeting inhibitors Alrizomadlin, Pelcitoclax, and Dasminapant in combination with a variety of drugs and investigational agents in selected tumor cell lines
The MDM2 inhibitor alrizomadlin, the Bcl-2/Bcl-xL inhibitor pelcitoclax, and the IAPs inhibitor dasminapant were evaluated both individually and in combination with standard of care and investigational anticancer small molecules within a complex spheroid model of solid tumors. . Complex spheroids include a stromal component modeled by human endothelial cells (HUVEC) and fibroblasts modeled by human mesenchymal stem cells (MSCs). The concentration ranges selected for each drug and investigational agent were based upon clinically achievable concentrations if the clinical Cmax of the agent was known.
Compounds. The drugs and investigational agents: alrizomadlin (APG-115; NSC831270), pelcitoclax (APG-1252; NSC835773), dasminapant (APG-1387;NSC834197), TAK-243 (NSC785004), copanlisib (NSC809693), olaparib (NSC753686), talazoparib (NSC767125), cobimetinib (NSC 768068), eltanexor (KPT-8602, NSC 794443), abemaciclib (NSC 768073), sotorasib (NSC818433), adagrasib (NSC 831453), MRTX-1133 (NSC 836407), Iadademestat (ORY1001, NSC 806812), and RMC-4630 (NSC839698), were obtained from the NCI Developmental Therapeutics Program Chemical Repository. The FDA-approved anticancer drug set is available from the Developmental Therapeutics Program at https://dtp.cancer.gov/organization/dscb/obtaining/available plates.htm. […] The stock solutions were prepared in dimethyl sulfoxide (DMSO, Sigma-Aldrich, St. Louis, MO, cat. D2650) at 800-fold the tested concentration and stored at -70 degrees C prior to their use. All drugs and investigational agents were tested over a range starting from a high concentration at or near the clinical Cmax and decreasing in half-log increments. If the clinical Cmax for an agent had not been determined, the highest concentration tested was 10 microM.
The patient-derived cancer (PDC) cell lines include five colon adenocarcinomas: 186277-243-T-J2-PDC, 616215-338-R-J1-PDC, 439559-082-T-J2-PDC, 463943-066-T-J2-PDC, and 519858-162-T-J1-PDC; three pancreatic carcinomas: 323965-272-R-J2-PDC, 521955-158-R6-J3-PDC, and 521955-158-R2-J5-PDC; two uterine sarcomas: 327498-152-R-J2-PDC and 993429-296-R-J1-PDC; two rhabdomyosarcomas: 755483-174-R-J1-PDC and 772245-204-R-J1-PDC; two soft tissue sarcomas: 126254-015-R-J1-PDC and 494315-158-R-J1-PDC; two malignant fibrous histiocytomas: 317291-083-R-J1-PDC and 596521-263-R-J1-PDC; two breast carcinomas: 171881-019-R-J1-PDC and 885512-296-R-J2-PDC; and one ovarian carcinoma: 6556581-035-R-J-PDC were obtained from the NCI PDMR, (https://pdmr.cancer.gov). The established cell lines HSSY-2 synovial sarcoma (RRID:CVCL 8719), SYO-1 synovial sarcoma (RRID:CVCL_7146), MPNST malignant peripheral neural sheath tumor were obtained from the Sloan Kettering Institute. The following established cell lines were purchased from the American Type Culture Collection (ATCC, Manassas, VA), Sor the received from the NCI repository:, PANC-1 pancreatic carcinoma (CRL-1469, RRID:CVCL_0480), OVCAR-5 ovarian carcinoma (RRID:CVCL_1628), OVCAR-8 ovarian carcinoma (RRID:CVCL_1629), , MCF-7 breast carcinoma (CRL-12584, RRID:CVCL_0031), MDA-MB-231 breast carcinoma (CRL-12532, RRID:CVCL_0062), NCI-H1876 small cell lung carcinoma (CRL-5902, RRID:CVCL_1503), NCI-H510A small cell lung carcinoma (HTB-184, RRID:CVCL_1565), NCI-H1417 (CRL-5869, RRID:CVCL_1469), and NCI-H196 small cell lung carcinoma (CRL-5823, RRID:CVCL_1509). Dr. Peter Houghton (Greehey Children's Cancer Research Institute, University of Texas Health Science Center, San Antonio, TX) provided Rh-18 rhabdomyosarcoma (RRID:CVCL_1659). Pooled donor human umbilical vein endothelial cells (HUVEC, Lonza, cat. CC-2519) and human mesenchymal stem cells (hMSC, Lonza, cat. PT-2501) were purchased from Lonza (Walkersville, MD).
Cell Culture. […]
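Further: spheroids exposed to agents for 7 days.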
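Wherever viability, T/C is given: 100% = DMSO vehicle control wells.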

CNC(C)C(=O)NC1CN(S(=O)(=O)c2cccc(S(=O)(=O)N3CCC4CCC(C(=O)NC(c5ccccc5)c5ccccc5)N4C(=O)C(NC(=O)C(C)NC)C3)c2)CCC2CCC(C(=O)NC(c3ccccc3)c3ccccc3)N2C1=O (stereo unspecified)
viability, T/C (compound alone 0.01 µM): 89.7%, 108% [2022-09] and 86.3, 93.3, 94.9 (2×), 95.7, 98.6, 101, 114, 108, 104, 103, 88.4, 94.2% [2022-10]
viability, T/C (compound alone 0.0316 µM): 90.5%, 85.6% [2022-09] and 90, 104 (2×), 115, 101 (3×), 102, 111, 99.4, 100, 106, 96.4% [2022-10]
viability, T/C (compound alone 0.316 µM): 85.5%, 106% [2022-09] and 102, 115, 104, 100, 112 (2×), 103 (2×), 114, 122, 98.9, 97, 96% [2022-10]
viability, T/C (compound alone 1 µM): 82.3%, 95.9% [2022-09] and 96.5, 98.3, 98.2, 97.3, 108, 107, 124, 101, 117, 106, 98.5, 93.9, 105% [2022-10]

C=C(F)C(=O)N1CCN(c2nc(OCC3CCCN3C)nc3c2CCN(c2cccc4cccc(Cl)c24)C3)CC1CC#N (stereo unspecified)
viability, T/C (compound alone 10 µM): 3.94%, 5.48% [2022-09] and 46.3% [2022-10]

Cc1c(S(C)(=O)=O)c(-c2cc(F)cc(N3CCN(c4ccc(NS(=O)(=O)c5ccc(NC(CCN6CCC(C(=O)OCCCP(=O)(O)O)CC6)CSc6ccccc6)c(S(=O)(=O)C(F)(F)F)c5)cc4)CC3)c2)c(-c2ccc(Cl)cc2)n1C(C)C (stereo unspecified)
viability, T/C (compound alone 0.1 µM): 86.2, 95, 89.7, 84.1, 110, 111 (2×), 98.7, 84, 97.8 (2×), 109, 103, 104%
viability, T/C (compound alone 0.316 µM): 92.2, 103, 87.5, 79.9, 92.8, 95.3, 85.5, 84.7, 100, 95.2, 94.8, 102, 105, 109%
viability, T/C (compound alone 1 µM): 93.2, 95.6, 87.6, 94.3, 104 (2×), 97, 91.7, 120, 111, 106, 94.1, 99.3, 105%
viability, T/C (compound alone 3.16 µM): 83.9, 96.7, 97.9, 93.4, 96.4, 87.8, 93.2, 100, 102 (2×), 109 (2×), 98.2, 106%
viability, T/C (compound alone 10 µM): 90.5, 87.7, 83.9, 82.4, 94.4, 88, 92.9, 92.2, 112, 104 (2×), 105, 96.1, 103%

CCN1C(C(=O)NC23CCC(C(=O)O)(CC2)CC3)C(c2cccc(Cl)c2F)C2(C(=O)Nc3cc(Cl)ccc32)C12CCCCC2 (stereo unspecified)
viability, T/C (compound alone 0.03 µM): 119 (3×), 101 (2×), 120, 109, 95, 105 (2×), 125, 107, 108, 121% [2022-09] and 123% [2022-10]
viability, T/C (compound alone 0.0949 µM): 99.3, 102 (2×), 100, 82, 83.9, 80.2, 93.3, 91.8, 90.4, 95.1, 95, 82.1, 84.9% [2022-09] and 140% [2022-10]
viability, T/C (compound alone 0.3 µM): 74.8, 63.1, 81.8, 70, 76.9, 73.7, 78, 75.3, 80.2, 72.3, 79.2, 57.6, 71.8, 90.2% [2022-09] and 130% [2022-10]
viability, T/C (compound alone 0.949 µM): 50.7, 45.4, 51.1, 51.2, 51.6, 55.5, 57.3, 58.8, 55.8, 56.1, 56.6, 38.1, 50.2, 72% [2022-09] and 89.5% [2022-10]
viability, T/C (compound alone 3 µM): 30.5, 28.3, 31, 26.6, 31.9 (2×), 29.2, 30, 36.8, 37.9, 35.6, 24.1, 30.4, 34.9% [2022-09] and 52.1% [2022-10]
IC50 (compound alone, run of 09/27/2022): 990 nM, 616 nM, 1.1 µM, 856 nM, 1.16 µM, 1.27 µM, 1.47 µM, 1.4 µM, 1.19 µM, 1.38 µM, 475 nM, 860 nM
